According to the supplement of paper PMC12297408:
Where a name gives a salt, the structure may show the parent alone. The whole screen tested about 1,300 compounds, of which about 40 (3%) showed activity. This is one part of the list.

Tested on: Plasmodium falciparum NF54/iGP1_RE9H ulg8 stage V gametocytes
Assay: gametocyte viability (luciferase signal relative to DMSO control) (% of DMSO control); higher = less gametocytocidal activity, active = 50 or less
Details: exposure time: 72 h
Summary of the method: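 Gametocyte viability is reported relative to the average of DMSO vehicle wells on the same plate. The assay used day-12 stage V NF54/iGP1_RE9Hulg8 gametocytes at ~2.5% gametocytemia and 3% hematocrit, in 0.5% Albumax II medium, added to 96-well plates of compounds spotted in nanolitre volumes for final 10 µM or 1 µM, one well each. After 72 h at 37 °C, 90 µl was mixed with 10 µl D-luciferin (30 mg/ml), and luminescence was recorded with an IVIS Lumina II.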

Row | SMILES | gametocyte viability (concentration: 1 µM) | gametocyte viability (concentration: 10 µM)
1 | CC(C)NC[C@H](O)COc1ccc(CC(N)=O)cc1 [(S)-(-)-Atenolol] | inactive: 89.7 | inactive: 92.6
2 | CCOC(=O)C(C)(C)Oc1ccc(Cl)cc1 [Clofibrate] | inactive: 98.6 | inactive: 102
3 | CN1CCC(=C2c3ccccc3CC(=O)c3sccc32)CC1 [Ketotifen fumarate] | inactive: 79.5 | inactive: 84.2
4 | COc1ccccc1N1CCN(CC(O)COc2cccc3ccccc23)CC1 (configuration not stated) [Naftopidil dihydrochloride] | inactive: 90.8 | inactive: 83.2
5 | CN1CCCC(CC2c3ccccc3Sc3ccccc32)C1 (configuration not stated) [Metixene hydrochloride] | inactive: 94.4 | inactive: 78.9
6 | CCN1C(=O)NC(c2ccccc2)C1=O (configuration not stated) [Ethotoin] | inactive: 94 | inactive: 83.9
7 | CCCN(CCC)C(=O)C(CCC(=O)O)NC(=O)c1ccccc1 (configuration not stated) [Proglumide] | inactive: 85.7 | inactive: 84.5
8 | COc1ccc2c(c1)N(C[C@H](C)CN(C)C)c1ccccc1S2 [Methotrimeprazine maleat salt] | inactive: 96.9 | inactive: 89.7
9 | N#CC(c1ccc(Cl)cc1)c1c(Cl)cc(-n2ncc(=O)[nH]c2=O)cc1Cl (configuration not stated) [Diclazuril] | inactive: 92.9 | inactive: 91.4
10 | COc1cc(OC)c(C(=O)CCCN2CCCC2)c(OC)c1 [Buflomedil hydrochloride] | inactive: 83.9 | inactive: 85.2
11 | Cn1ccnc1S [Methimazole] | inactive: 88 | inactive: 81.6
12 | Nc1c(Br)cc(Br)cc1CN[C@H]1CC[C@H](O)CC1 [Ambroxol hydrochloride] | inactive: 83.3 | inactive: 89.8
13 | CC(C)(Sc1cc(C(C)(C)C)c(O)c(C(C)(C)C)c1)Sc1cc(C(C)(C)C)c(O)c(C(C)(C)C)c1 [Probucol] | inactive: 84.2 | inactive: 85.2
14 | CN(C)CC/C=C1\c2ccccc2CSc2ccccc21 [Dosulepin hydrochloride] | inactive: 88 | inactive: 82.9
15 | CC(C)(Oc1ccc(Cl)cc1)C(=O)O [Clofibric acid] | inactive: 93 | inactive: 93.1
16 | CO[C@H]1C[C@H](O[C@H]2[C@H](C)[C@@H](O[C@@H]3O[C@H](C)C[C@H](N(C)C)[C@H]3OC(C)=O)[C@@H](C)C[C@@]3(CO3)C(=O)[C@H](C)[C@@H](OC(C)=O)[C@@H](C)[C@@H](C)OC(=O)[C@@H]2C)O[C@@H](C)[C@@H]1OC(C)=O [Troleandomycin] | inactive: 83.6 | inactive: 88.8
17 | COc1ccc(-c2ccc(=N)n(CCCC(=O)O)n2)cc1 [Gabazine bromide] | inactive: 81.2 | inactive: 82.5
18 | Cc1cc(C(=O)NNCc2ccccc2)no1 [Isocarboxazid] | inactive: 98.7 | inactive: 85
19 | CC(C)(S)[C@@H](N)C(=O)O [Penicillamine] | inactive: 92.4 | inactive: 93.1

Row | SMILES | gametocyte viability (concentration: 1 µM) | gametocyte viability (concentration: 10 µM)
20 | Cn1c(=O)c2c(ncn2CC(=O)O)n(C)c1=O [Acefylline] | inactive: 81.2 | inactive: 93.5
21 | C=C[C@H]1CN2CC[C@H]1C[C@@H]2[C@@H](O)c1ccnc2ccc(OC)cc12 [Quinidine hydrochloride monohydrate] | inactive: 71.2 | inactive: 51.7
22 | Cc1cccc(C)c1NC(=O)C1CCCCN1C (configuration not stated) [Mepivacaine hydrochloride] | inactive: 88.3 | inactive: 88.5
23 | Cc1ncc([N+](=O)[O-])n1CC(O)CCl (configuration not stated) [Ornidazole] | inactive: 78.7 | inactive: 82.6
24 | CN1C(C(=O)Nc2ccccn2)=C(O)c2sccc2S1(=O)=O [Tenoxicam] | inactive: 92 | inactive: 88.2
25 | CS(=O)(=O)c1ccc(C2=C(c3ccccc3)C(=O)OC2)cc1 [Rofecoxib] | inactive: 85.4 | inactive: 81.7
26 | Cn1c(=O)c2[nH]cnc2n(C)c1=O [Aminophylline] | inactive: 85.5 | inactive: 81.6
27 | Cc1[nH]c(=O)c(C#N)cc1-c1ccncc1 [Milrinone] | inactive: 81 | inactive: 82.1
28 | Cc1ccnc2c1NC(=O)c1cccnc1N2C1CC1 [Nevirapine] | inactive: 79.7 | inactive: 74.2
29 | CN(C)CCC=C1c2ccccc2CCc2ccccc21 [Amitryptiline hydrochloride] | inactive: 86.7 | inactive: 86.2
30 | COc1cc(Cc2cnc(N)nc2N)cc(OC)c1OC [Trimethoprim] | inactive: 83.9 | inactive: 89.1
31 | COc1cc(-c2ccc(N=Nc3ccc4c(S(=O)(=O)O)cc(S(=O)(=O)O)c(N)c4c3O)c(OC)c2)ccc1N=Nc1ccc2c(S(=O)(=O)O)cc(S(=O)(=O)O)c(N)c2c1O [Chicago sky blue 6B] | inactive: 80.1 | inactive: 82.1
32 | CCN(CC)CCOC(=O)C(c1ccccc1)C1CCCCC1 (configuration not stated) [Drofenine hydrochloride] | inactive: 84 | inactive: 84.8
33 | COCC1=C(C(=O)OC(C)OC(=O)OC(C)C)N2C(=O)[C@@H](NC(=O)/C(=N\OC)c3csc(N)n3)[C@H]2SC1 (some centres not stated) [Cefpodoxime proxetil] | inactive: 89.6 | inactive: 84.3
34 | COc1cc2c(cc1OC)C(=O)C(CC1CCN(Cc3ccccc3)CC1)C2 (configuration not stated) [Donepezil hydrochloride] | inactive: 78.9 | inactive: 75.6
35 | CCCCC(CC)CN1CN(CC(CC)CCCC)CC(C)(N)C1 (configuration not stated) [Hexetidine] | inactive: 90.8 | inactive: 102
36 | O=C(CCCN1CCC(O)(c2ccc(Br)cc2)CC1)c1ccc(F)cc1 [Bromperidol] | inactive: 87.4 | inactive: 92.3
37 | CO[C@@]1(NC(=O)Cc2cccs2)C(=O)N2C(C(=O)O)=C(COC(N)=O)CS[C@@H]21 [Cefoxitin sodium salt] | inactive: 85.9 | inactive: 81.1
38 | CC(=O)c1ccc2c(c1)N(CCCN1CCC(CCO)CC1)c1ccccc1S2 [Piperacetazine] | inactive: 79.4 | inactive: 80.8

Row | SMILES | gametocyte viability (concentration: 1 µM) | gametocyte viability (concentration: 10 µM)
39 | N=C(N)NC(=O)c1nc(Cl)c(N)nc1N [Amiloride hydrochloride dihydrate] | inactive: 91.4 | inactive: 84.3
40 | O=C1NCN(c2ccccc2)C12CCN(CCCC(c1ccc(F)cc1)c1ccc(F)cc1)CC2 [Fluspirilen] | inactive: 88.5 | inactive: 88.4
41 | CC(C)(C)C(=O)OCOC(=O)[C@@H]1N2C(=O)[C@@H](NC(=O)[C@H](N)c3ccccc3)[C@H]2SC1(C)C [Pivampicillin] | inactive: 87.7 | inactive: 83.6
42 | CCOc1ccccc1OCC1CNCCO1 (configuration not stated) [Viloxazine hydrochloride] | inactive: 96.7 | inactive: 99.3
43 | CC[C@H]1OC(=O)[C@H](C)[C@@H](O[C@H]2C[C@@](C)(OC)[C@@H](O)[C@H](C)O2)[C@H](C)[C@@H](O[C@@H]2O[C@H](C)C[C@H](N(C)C)[C@H]2O)[C@](C)(OC)C[C@@H](C)C(=O)[C@H](C)[C@@H](O)[C@]1(C)O [Clarithromycin] | inactive: 92.8 | inactive: 91
44 | N[C@@H]1CCCCN(c2c(F)cc3c(=O)c(C(=O)O)cn(C4CC4)c3c2Cl)C1 [Besifloxacin hydrochloride] | inactive: 82.7 | inactive: 80.5
45 | CCCCC1=NC2(CCCC2)C(=O)N1Cc1ccc(-c2ccccc2-c2nnn[nH]2)cc1 [Irbesartan] | inactive: 80.9 | inactive: 76.9
46 | CCCCOC(=O)c1ccc(N)cc1 [Butamben] | inactive: 85.3 | inactive: 86.3
47 | CCOC(=O)[C@H](CCc1ccccc1)N[C@@H](C)C(=O)N1[C@H](C(=O)O)C[C@@H]2CCC[C@@H]21 [Ramipril] | inactive: 82.9 | inactive: 86.2
48 | CCOc1ccc2c(c1)C(C)=CC(C)(C)N2 [Ethoxyquin] | inactive: 84.2 | inactive: 83.1
49 | NC(=O)c1ncn([C@@H]2O[C@H](CO)[C@@H](O)[C@H]2O)n1 [Ribavirin] | inactive: 92.6 | inactive: 87.4
50 | CC(C)COCC(CN(Cc1ccccc1)c1ccccc1)N1CCCC1 (configuration not stated) [Bepridil hydrochloride] | inactive: 81.5 | inactive: 107
51 | CN[C@H](CC(C)C)C(=O)N[C@H]1C(=O)N[C@@H](CC(N)=O)C(=O)N[C@H]2C(=O)N[C@H]3C(=O)N[C@H](C(=O)N[C@H](C(=O)O)c4cc(O)cc(O)c4-c4cc3ccc4O)[C@H](O)c3ccc(c(Cl)c3)Oc3cc2cc(c3O[C@@H]2O[C@H](CO)[C@@H](O)[C@H](O)[C@H]2O[C@H]2C[C@](C)(N)[C@H](O)[C@H](C)O2)Oc2ccc(cc2Cl)[C@H]1O [Vancomycin hydrochloride] | inactive: 82.4 | inactive: 88.8
52 | CNS(=O)(=O)Cc1ccc2[nH]cc(CCN(C)C)c2c1 [Sumatriptan succinate] | inactive: 96.5 | inactive: 90.6
53 | NS(=O)(=O)c1cc2c(cc1Cl)N=CNS2(=O)=O [Chlorothiazide] | inactive: 84.2 | inactive: 89.1
54 | COc1cc(C(=O)NS(=O)(=O)c2ccccc2C)ccc1Cc1cn(C)c2ccc(NC(=O)OC3CCCC3)cc12 [Zafirlukast] | inactive: 92.7 | inactive: 91
55 | Cc1cc(C2CCCCC2)n(O)c(=O)c1 [Ciclopirox ethanolamine] | inactive: 85.5 | inactive: 86.8
56 | NS(=O)(=O)c1cc(C(=O)O)c(NCc2ccco2)cc1Cl [Furosemide] | inactive: 78.6 | inactive: 87.7
